According to PMC4336329 (PLoS ONE, 2015):
The whole screen tested about 310,000 compounds, of which about 14,000 (4.5%) showed an effect of 50% or more. The effect is printed as a negative number. The list shows a part of the results.

What follows are compounds tested against human ether-à-go-go-related gene (hERG) potassium channel (human, UniProt Q12809) (assay: primary screen, population patch clamp on CHO cells stably expressing hERG).
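Also: peak tail current of the secondary pulse compared with the same well before compound.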

Chain of human ether-à-go-go-related gene (hERG) potassium channel (Q12809 whole entry, looked up): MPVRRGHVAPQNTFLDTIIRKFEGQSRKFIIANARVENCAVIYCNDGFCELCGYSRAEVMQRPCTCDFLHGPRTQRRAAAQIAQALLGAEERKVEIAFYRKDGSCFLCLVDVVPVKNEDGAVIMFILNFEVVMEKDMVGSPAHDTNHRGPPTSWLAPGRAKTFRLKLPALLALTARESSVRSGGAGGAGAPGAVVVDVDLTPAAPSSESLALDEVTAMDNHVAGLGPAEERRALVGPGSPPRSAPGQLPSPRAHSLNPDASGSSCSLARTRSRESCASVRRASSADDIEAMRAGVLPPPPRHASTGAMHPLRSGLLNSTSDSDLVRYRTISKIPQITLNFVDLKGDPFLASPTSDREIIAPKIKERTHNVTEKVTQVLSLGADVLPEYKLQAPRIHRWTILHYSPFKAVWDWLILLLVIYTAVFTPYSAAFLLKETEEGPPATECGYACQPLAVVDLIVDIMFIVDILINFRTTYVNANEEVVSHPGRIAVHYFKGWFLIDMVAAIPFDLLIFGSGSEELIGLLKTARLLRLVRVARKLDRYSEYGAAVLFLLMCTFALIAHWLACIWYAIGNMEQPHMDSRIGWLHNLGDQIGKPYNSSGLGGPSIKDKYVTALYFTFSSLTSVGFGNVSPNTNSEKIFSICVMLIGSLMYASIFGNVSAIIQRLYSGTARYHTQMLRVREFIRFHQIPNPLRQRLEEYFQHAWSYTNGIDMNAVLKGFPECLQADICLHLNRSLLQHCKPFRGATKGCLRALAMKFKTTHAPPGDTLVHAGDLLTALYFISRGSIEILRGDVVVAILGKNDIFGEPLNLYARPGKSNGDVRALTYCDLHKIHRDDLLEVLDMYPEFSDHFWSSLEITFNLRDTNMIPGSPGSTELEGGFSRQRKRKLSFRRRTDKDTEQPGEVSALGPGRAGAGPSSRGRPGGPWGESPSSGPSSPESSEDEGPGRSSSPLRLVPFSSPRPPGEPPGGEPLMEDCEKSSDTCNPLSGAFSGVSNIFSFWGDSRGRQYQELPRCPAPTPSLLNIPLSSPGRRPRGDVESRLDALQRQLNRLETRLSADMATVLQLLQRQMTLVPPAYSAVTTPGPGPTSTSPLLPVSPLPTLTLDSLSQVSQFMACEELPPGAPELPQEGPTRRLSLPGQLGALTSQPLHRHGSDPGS

| SMILES | hERG current change (%, negative = inhibition) at 10uM [%] |
| --- | --- |
| CC(NS(=O)(=O)c1ccc2c(c1)CC(=O)N2C)c1ccccc1 (stereo not shown) | 9.13 |
| COc1cc(C2CC(c3cccs3)=NN2C(=O)CCl)ccc1OC(F)F (stereo not shown) | 17 |
| O=c1[nH]c(Nc2ccccc2)cc2ccccc12 | 1.33 |
| COc1ccc(NC(=O)CSc2nnc3c4c(nc(-c5ccccc5)n23)CC(C)(C)OC4)cc1 | -6.16 |
| CCn1cc(C(=O)NCCCN2CCCC2)c(=O)c2cc(S(=O)(=O)N3CCc4ccccc4C3)ccc21 | -8.75 |
| Cc1ccc(C(=O)OCC(=O)NCc2cccs2)c(C)c1 | 22.5 |
| CCC(=O)Nc1nc(CC(=O)Nc2ccccc2)cs1 | 18.2 |
| CC1(C)Cc2cccc(OCC(=O)N3CCN(c4ccc([N+](=O)[O-])cc4)CC3)c2O1 | -70.3 |
| O=C(CSc1nc2ccccc2c(=O)n1NC(=O)Cc1ccccc1)NCc1ccccc1 | -4.05 |
| Cc1ccc(-c2nc3ncccc3o2)cc1NC(=O)c1cc2ccccc2o1 | 0.219 |
| O=S(=O)(N1CCOCC1)N1CCOCC1 | 24.6 |
| CN1CCN(C(=O)c2cc(-c3ccco3)on2)CC1 | 19.7 |
| CC(=C/c1ccccc1)/C=N/Nc1nc(N2CCCCC2)nc(N2CCCCC2)n1 | 4.75 |
| Cc1ccc(S(=O)(=O)CCC(=O)N(Cc2nnc(-c3ccc(Cl)cc3)o2)C2CC2)cc1 | -12.7 |
| COc1ccc(NC(=O)C(NC(=O)c2ccc(=O)[nH]c2)c2ccc(OC)cc2)cc1 (stereo not shown) | -1.51 |
| COc1cc(C(CC(=O)Nc2ccc(C)cn2)N2Cc3ccccc3C2=O)cc(OC)c1OC (stereo not shown) | -1.38 |
| O=C(Nc1ccc(Cl)cc1)N1CCOC12CCCCC2 | 2.95 |
| O=C(N/N=C\C=C\c1ccc2c(c1)OCO2)C1COc2ccccc2O1 (stereo not shown) | -26.5 |
| CCCCn1c(=O)n(C)c(=O)c2c3c(sc21)COC(C)(C)C3 | -11.1 |
| O=C(N/N=C\c1cn(-c2ccccc2)nc1-c1ccccc1)c1ccc(Br)o1 | -0.855 |
| C=CCn1c(CCNC(=O)c2ccccc2F)nnc1SCC(=O)Nc1nc(C)cs1 | -5.2 |
| COC(=O)C1CC(=O)N(CCc2c[nH]c3ccccc23)C1 (stereo not shown) | -2.54 |

| SMILES | hERG current change (%, negative = inhibition) at 10uM [%] |
| --- | --- |
| CC(C)(C)C1CCc2c(sc(NC(=O)CSc3nnc(-c4ccccc4)o3)c2C#N)C1 (stereo not shown) | 16.2 |
| O=C(c1ccc(Cl)cc1Cl)N1CCC(C(=O)N2CCOCC2)CC1 | 9.99 |
| O=C(CN1CCOCC1)Nc1ccc(Oc2ccc(NC(=O)CN3CCOCC3)cc2)cc1 | 5.59 |
| O=C(O)c1ccc(C2CCCCC2)cn1 | 7.42 |
| CC(=O)NCCNC(=O)c1ccc(Cn2c(=O)[nH]c3ccsc3c2=O)cc1 | 22.3 |
| Cc1ccccc1SCC(=O)Nc1cccc(C#N)c1 | -10.7 |
| Cc1ccc(S(=O)(=O)NCC(=O)NCC(=O)NC(C)c2ccccc2Br)cc1C (stereo not shown) | -8.12 |
| C=CCC(=O)NC1CC(C)(C)Cc2c1cnn2-c1ccccc1C (stereo not shown) | 4.35 |
| COC1=CCC2([N+](=O)[O-])CN(CCO)CC1([N+](=O)[O-])C2 (stereo not shown) | 7.75 |
| CCCn1c(=O)c2c(nc3n2CCS3)n(C)c1=O | 16.5 |
| CC(=NCCCn1ccnc1)c1c(O)n(C)c(=O)n(C)c1=O | -9.42 |
| CCN(CC)c1ccc(C2C(C(=O)Nc3ccccn3)=C(C)NC3=C2C(=O)CC(C)(C)C3)cc1 (stereo not shown) | -31.7 |
| Cn1cc(Cl)c(C(=O)Nc2nc3ccc([N+](=O)[O-])cc3s2)n1 | 29.3 |
| CCOC(=O)c1c(NC(=O)c2cccs2)sc(C(=O)N2CCOCC2)c1C | -55.5 |
| O=C(COc1cccc(C(F)(F)F)c1)Nc1ccc(S(=O)(=O)N2CCCC2)cc1 | 5.48 |
| Cc1cc(C)nc(N2CCCC(C(=O)NCc3cccc(C(F)(F)F)c3)C2)n1 (stereo not shown) | 16.7 |
| O=C(CSC1CS(=O)(=O)c2cc([N+](=O)[O-])ccc21)NNC(=O)c1ccccc1 (stereo not shown) | -20.7 |
| CCn1c(=O)c(C(=O)Nc2ccccn2)c(O)c2ccccc21 | 5.38 |
| CN(CC(=O)Nc1ccc(Cl)cc1)C(=O)CCc1nc2sc3c(c2c(=O)[nH]1)CCCC3 | -22.1 |
| Cc1ccccc1OCc1nnc(SCC(=O)O)n1-c1ccccc1 | 14.4 |
| O=C(COc1ccccc1)Nc1nnc(-c2ccccc2Cl)o1 | 8.56 |
